According to PubChem BioAssay AID588453 (National Center for Advancing Translational Sciences (NCATS), 2011):
Screen size: about 390,000 compounds; about 4,000 (1%) were called active. The shares of active, inactive and inconclusive entries below differ from those in the screen. The call rests on the fitted dose curve; in most records, active means well fitted inhibition curve with a large enough effect; inconclusive means small, poorly fitted or top-dose-only effect; inactive means no such curve, though single readings can be large or run the other way. Where the call is inconclusive, the potency comes from a doubtful curve fit.

Molecular target: Thioredoxin reductase 1, cytoplasmic (Rattus norvegicus) (UniProt O89049)
Experiment: qHTS Assay for Inhibitors of Mammalian Selenoprotein Thioredoxin Reductase 1 (TrxR1): qHTS; further: nearly all actives have a fitted effect of over 65% in size
Settings: recombinant rTrxR1, NADPH fluorescence consumption, selenite substrate; series mostly up to 114 µM; activity change, negative = inhibition: at the top concentration
Outline: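 Rat TrxR1 (90 nM in the dispensed reagent) was pre-reduced with 400 uM NADPH for 5 min at room temperature, then incubated with compound for 15 min. After 400 uM selenite was added, NADPH fluorescence (Ex 340/Em 450 nm) was followed for 8 min.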
On the % scale 0 is the no-effect control and ±100 the full control effect; potency means the concentration at half of the fitted maximal effect; tags describe the fitted curve by direction and shape.

Chain of UniProt O89049 (O89049 whole entry, looked up): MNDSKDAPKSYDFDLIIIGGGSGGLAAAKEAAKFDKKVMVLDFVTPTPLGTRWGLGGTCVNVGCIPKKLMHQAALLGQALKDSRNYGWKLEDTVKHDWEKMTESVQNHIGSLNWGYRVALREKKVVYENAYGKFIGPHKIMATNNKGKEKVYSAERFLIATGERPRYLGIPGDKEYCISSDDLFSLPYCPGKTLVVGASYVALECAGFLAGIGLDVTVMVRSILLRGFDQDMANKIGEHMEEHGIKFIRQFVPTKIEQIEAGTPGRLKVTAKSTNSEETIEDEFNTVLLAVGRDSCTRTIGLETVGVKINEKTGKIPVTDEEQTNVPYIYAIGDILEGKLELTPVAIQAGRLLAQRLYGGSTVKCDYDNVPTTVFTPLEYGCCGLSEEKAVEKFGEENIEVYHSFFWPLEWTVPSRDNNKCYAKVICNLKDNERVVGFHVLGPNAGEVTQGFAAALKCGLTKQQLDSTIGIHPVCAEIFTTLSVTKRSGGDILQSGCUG

Row | SMILES | Potency | activity change, negative = inhibition
1 | Cc1cc(OC(=O)c2c(F)cc(F)cc2F)nc(C)n1 | inconclusive: 11.2 µM [inhibitor, partial curve, poor fit] | 
2 | COC(=O)C1=C(N)Oc2cc(C)n(Cc3cccnc3)c(=O)c2C1c1ccc(OC)c(OC)c1 (stereo not drawn) | inconclusive: 89.1 µM [inhibitor, single point] | 
3 | Cc1ccccc1CN1CCN(C(=O)c2cc(-c3ccncc3)nc3ccccc23)CC1 | inconclusive: 50.1 µM [inhibitor, partial curve] | 
4 | O=C(NNC(=S)NC(=O)c1ccccc1)c1ccc(O)cc1 | inconclusive: 89.1 µM [inhibitor, partial curve, poor fit] | 
5 | Cc1ccc(S(=O)(=O)Cc2ccc(C(=O)N3CCN(c4cccc(C)c4C)CC3)o2)cc1 | inactive | 
6 | COCc1c(C(=O)OC/C(O)=C(\C#N)c2nc3ccccc3[nH]2)oc2ccccc12 |  | inactive: 23.3% [at 57.1 µM]
7 | c1ccc(C(c2nnnn2Cc2ccco2)N2CCN(C3CCCC3)CC2)cc1 (stereo not drawn) | inconclusive: 17.8 µM [inhibitor, partial curve, poor fit] | 
8 | COc1ccc(OC)c(N2C(=O)CC(NNC(=O)c3ccc4c(c3)OCO4)C2=O)c1 (stereo not drawn) | inconclusive: 89.1 µM [inhibitor, single point] | 
9 | COc1ccc(C(=O)N2N=C(c3cccc(OC)c3)CC2(O)C(F)(F)F)cc1 (stereo not drawn) |  | inactive: -4.23% [at 57.1 µM]
10 | Cc1ccc2c(cnn2C(=O)CCCC(=O)NC(C)c2ccccc2)c1 (stereo not drawn) |  | inactive: 12.4% [at 57.1 µM]
11 | CN(C)c1ccc(/C=C2\CCC/C(=C\c3ccccc3)C2=O)cc1 | inconclusive: 44.7 µM [inhibitor, partial curve, poor fit] | 
12 | CCOC(=O)c1c(NC(=O)c2nc(SCC)ncc2Cl)sc(C(C)=O)c1C |  | inactive: 22.1%
13 | Cc1noc(NC(=O)c2cccc(Cl)c2Cl)c1C#N | inconclusive: 44.7 µM [inhibitor, partial curve] | 
14 | Cn1c(CSCc2ccc(Cl)cc2)nnc1SCC(=O)Nc1nccs1 |  | inactive: -0.535%
15 | O=[N+]([O-])c1ccc(/C=N/NC(=S)Nc2ccccc2C(F)(F)F)o1 | inconclusive: 50.1 µM [inhibitor, partial curve, poor fit] | 
16 | c1ccc(Oc2nc(NCc3ccco3)nc(NCc3ccco3)n2)cc1 | inconclusive: 28.2 µM [inhibitor, single point] | 
17 | Cc1c(Cl)cccc1NC(=O)CC1SC(=NCC2CCCO2)NC1=O (stereo not drawn) | inconclusive: 28.2 µM [inhibitor, partial curve] | 
18 | COc1ccc(/C=C/C(=O)c2ccc([N+](=O)[O-])o2)cc1 | inconclusive: 1 µM [inhibitor, full curve] | 
19 | CSCC[C@H](NC(=O)C1CCN(S(=O)(=O)c2ccc(C)cc2)CC1)C(=O)NCc1ccco1 | inconclusive: 50.1 µM [inhibitor, partial curve] | 
20 | CCCCN(C)C(=O)c1ccc(CS(=O)(=O)c2ccccc2C)o1 | inconclusive: 79.4 µM [inhibitor, single point] | 
21 | Cc1c(NC(=S)NC(=O)c2sc3ccccc3c2Cl)cccc1C(=O)O | inconclusive: 14.1 µM [inhibitor, partial curve] | 
22 | O=C(C(Cl)c1ccccc1)N1CCOCC1 (stereo not drawn) | inconclusive: 17.8 µM [inhibitor, full curve] | 

Row | SMILES | Potency | activity change, negative = inhibition
23 | CCCCn1c(SCC(=O)NCc2ccco2)nnc1-c1ccoc1C | inconclusive: 50.1 µM [inhibitor, partial curve, poor fit] | 
24 | COc1cc2nc(Cl)nc(NC(C)C)c2cc1OC | inconclusive: 79.4 µM [inhibitor, single point] | 
25 | CCc1ccc(C(C)NC(=S)NCc2ccc(F)cc2)cc1 (stereo not drawn) |  | inactive: 7.57%
26 | CCCCn1c(SCC(=O)NCc2ccc3c(c2)OCO3)nnc1C(CC)N(C)C (stereo not drawn) | inconclusive: 79.4 µM [inhibitor, partial curve, poor fit] | 
27 | C[C@@H]1O[C@@H](O[C@@H]2[C@@H](O)[C@H](OCCc3ccc(O)c(O)c3)O[C@H](CO)[C@H]2OC(=O)/C=C/c2ccc(O)c(O)c2)[C@H](O)[C@H](O)[C@H]1O | inconclusive: 44.7 µM [inhibitor, partial curve] | 
28 | CN(c1ccccc1N(C)S(=O)(=O)c1ccccc1)S(=O)(=O)c1ccccc1 |  | inactive: 27.1%
29 | Cc1cccc(N2CCN(C(=O)C3CCN(S(=O)(=O)c4cccc5cccnc45)CC3)CC2C)c1 (stereo not drawn) | inconclusive: 39.8 µM [inhibitor, partial curve] | 
30 | CCOc1ccc2oc(=O)cc(CN3CCN(c4cc(C)ccc4C)CC3)c2c1 |  | inactive: -3.69%
31 | CC(Sc1ccccc1)C(=O)NN=C1CCCCCC1 (stereo not drawn) | inconclusive: 79.4 µM [inhibitor, partial curve] | 
32 | COc1ccccc1/C=C/CN1CCNC(=O)C1CC(=O)NCCc1cnccn1 (stereo not drawn) | inconclusive: 89.1 µM [inhibitor, single point] | 
33 | CC(C)=C1C2CCC1C1C(=O)N(c3nc(-c4ccc(F)cc4)c(C)s3)C(=O)C21 (stereo not drawn) |  | inactive: 22.4%
34 | Cc1ccc(C(=O)Nc2c(-c3ccccc3)nc3ccccn23)cc1C |  | inactive: 14.7%
35 | O=C(CCNS(=O)(=O)c1ccc(Br)cc1)NC1CCCCC1 |  | inactive: 2.1%
36 | C=CCn1c(SCC(=O)NCc2ccco2)nnc1-c1ccc2ccccc2n1 | active: 79.4 µM | 
37 | CC1(C)C(=O)Nc2ccccc2N1C(=O)COC(=O)c1ccc([N+](=O)[O-])o1 | inconclusive: 20 µM [inhibitor, full curve, poor fit] | 
38 | COc1ccc2nc(SCC(=O)N3CCN(c4ccc(F)cc4)CC3)c(C#N)cc2c1 | inconclusive: 12.6 µM [inhibitor, partial curve, poor fit] | 
39 | CCS(=O)(=O)CCSc1nc2ccccc2o1 |  | inactive: 15.4%
40 | FC(F)(F)c1cccc(N2CCN(Cc3ccoc3)CC2)c1 | inconclusive: 12.6 µM [inhibitor, partial curve, poor fit] | 
41 | O=C(CSc1nc2ccccc2n1Cc1ccccc1Cl)N/N=C/c1ccccc1C(=O)O |  | inactive: -0.0064%
42 | CNC[C@H]1Oc2c(NC(=O)C3CC3)cccc2C(=O)N([C@H](C)CO)C[C@@H]1C | inconclusive: 70.8 µM [inhibitor, partial curve] | 
43 | CC(=O)NNC(=O)N1Cc2ccccc2Oc2ccc(Cl)cc21 | inconclusive: 89.1 µM [inhibitor, single point] | 
